Screen size: about 310,000 compounds; about 2,200 (0.71%) showed an effect of 50% or more. Effects have a minus sign here. The list shows a part of the results.

Sequence of human ether-à-go-go-related gene (hERG) potassium channel (Q12809 whole entry, looked up): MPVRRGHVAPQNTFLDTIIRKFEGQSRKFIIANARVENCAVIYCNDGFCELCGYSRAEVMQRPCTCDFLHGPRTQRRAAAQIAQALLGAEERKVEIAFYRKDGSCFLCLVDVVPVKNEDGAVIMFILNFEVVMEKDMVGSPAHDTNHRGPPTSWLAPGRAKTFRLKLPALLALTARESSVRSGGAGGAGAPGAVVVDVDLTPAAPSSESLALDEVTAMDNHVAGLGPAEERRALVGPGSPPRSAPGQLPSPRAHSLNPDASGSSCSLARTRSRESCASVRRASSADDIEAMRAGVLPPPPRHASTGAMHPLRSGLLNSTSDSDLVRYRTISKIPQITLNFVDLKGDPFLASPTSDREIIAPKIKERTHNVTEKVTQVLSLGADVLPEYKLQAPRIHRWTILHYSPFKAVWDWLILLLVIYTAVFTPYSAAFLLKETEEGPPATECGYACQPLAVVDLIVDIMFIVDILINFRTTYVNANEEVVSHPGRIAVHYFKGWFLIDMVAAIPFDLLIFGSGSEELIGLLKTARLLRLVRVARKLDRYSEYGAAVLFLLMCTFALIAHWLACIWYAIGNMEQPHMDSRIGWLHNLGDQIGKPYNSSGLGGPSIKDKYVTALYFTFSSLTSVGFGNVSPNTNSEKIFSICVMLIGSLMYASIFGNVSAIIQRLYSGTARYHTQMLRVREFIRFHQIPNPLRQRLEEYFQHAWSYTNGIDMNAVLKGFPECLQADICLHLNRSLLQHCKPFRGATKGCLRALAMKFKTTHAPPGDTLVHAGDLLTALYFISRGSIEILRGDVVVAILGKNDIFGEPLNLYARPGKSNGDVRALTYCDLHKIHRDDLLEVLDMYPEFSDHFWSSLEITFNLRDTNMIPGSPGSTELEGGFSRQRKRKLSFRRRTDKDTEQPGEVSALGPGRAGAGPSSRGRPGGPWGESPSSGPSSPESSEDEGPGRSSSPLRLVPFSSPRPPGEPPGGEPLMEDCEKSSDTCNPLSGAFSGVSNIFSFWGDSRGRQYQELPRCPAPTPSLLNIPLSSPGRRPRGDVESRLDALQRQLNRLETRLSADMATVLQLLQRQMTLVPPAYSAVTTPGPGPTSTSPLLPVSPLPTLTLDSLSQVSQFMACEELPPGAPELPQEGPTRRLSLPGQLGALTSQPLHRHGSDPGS

This assay addresses human ether-à-go-go-related gene (hERG) potassium channel (human, UniProt Q12809). The assay is described as follows: primary screen, population patch clamp on CHO cells stably expressing hERG.
With `Cc1cc(C(=O)N/N=C/c2ccc3ccccc3c2)n[nH]1`, the “hERG current change (%, negative = inhibition) at 1uM” value turned out to be 18.6%. Next, `COC(=O)c1ccc(C(=O)Nc2nnc(-c3cccnc3)o2)cc1`: 10.6%; `COc1ccc(C2C(C#N)=C(N)N(N(C)C)C3=C2C(=O)CC(C)(C)C3)cc1` (stereo not drawn): 5.31%; `C/C(=N\N1CCN(c2ccccc2)CC1)c1ccco1`: 8.97%. Next, `CCN(CC)c1ccc(/C=N/NS(=O)(=O)c2cccc([N+](=O)[O-])c2)cc1`: 14.1%; `COc1ccc(CN2[C@@H](CC(=O)O)c3ccccc3S2(=O)=O)cc1`: 20.4%; `O=C(CCc1nnc(CCCc2ccccc2)o1)NCC(F)(F)F`: 7.04%. The result for `COc1cccc(CNC(=O)c2ccc(OCC(=O)N3CCOCC3)c(OC)c2)c1` reads 16.8%. For `COc1ccc(N2CCN(C(=O)CNC(=O)c3cccs3)CC2)cc1`, the “hERG current change (%, negative = inhibition) at 1uM” value amounted to 26.2%. For the molecule `COc1ccc(OCC(=O)Nc2ccc(N3CCN(Cc4ccccc4F)CC3)cc2)cc1`, the “hERG current change (%, negative = inhibition) at 1uM” value was found to be 1.71%. Take `OC(COc1ccc2c(c1)CCC2)Cn1cnc2ccccc21` (stereo not drawn): the “hERG current change (%, negative = inhibition) at 1uM” value turned out to be 14.2%. Next, `COc1ccc(C2CC(=O)C3=C(C2)Nc2ncnn2C3c2ccccc2C)c(OC)c1` (stereo not drawn): -3.59%; `Cc1cc(C)cc(-n2c(C)cc(/C=N/NC(=O)CN(c3c(C)cccc3C)S(C)(=O)=O)c2C)c1`: 10.9%. The result for `Cc1cc(NC(=O)c2ccc3c(c2)C(=O)N(C)C3=O)no1` reads 16.4%; that for `O=C1C2CC=CCC2C(=O)N1Cc1ccccc1` (stereo not drawn), 8.16%; that for `O=S(=O)(Nc1nc2ccccc2nc1NCC1CCCO1)c1cc(Cl)ccc1Cl` (stereo not drawn), -0.683%. The result for `COc1ccc(CCn2ccc(O)c(Cc3ccc(Cl)cc3Cl)c2=O)cc1OC` reads 7.11%; that for `CCC(Sc1nnc(-c2ccco2)n1C)C(=O)Nc1nnc(C)s1` (stereo not drawn), 10.8%; that for `NC(=O)C1CCN(c2ccc(C(F)(F)F)cn2)CC1`, 5.33%. Turning to `O=C(C1CCCN(S(=O)(=O)c2ccccc2)C1)N1CCN(c2ncccn2)CC1` (stereo not drawn), the “hERG current change (%, negative = inhibition) at 1uM” value is reported as -15.6%. Next, `O=c1[nH]ncc(NCCc2ccccc2)c1Cl`: 14.6%. The result for `CC(NC(=O)Cn1ncc(Cl)c(Cl)c1=O)C12CC3CC(CC(C3)C1)C2` (stereo not drawn) reads 15.8%; that for `CCOC(=O)/C(=N/Nc1ccc(Cl)cc1)S(=O)(=O)c1ccccc1`, -0.828%; that for `Cc1cc(C)n(Cc2ccc(NC(=O)c3ccc(COc4ccccc4Br)cc3)cc2)n1`, -8.42%. With `CN1CCN(NS(=O)(=O)c2ccc(Cl)cc2)CC1`, the “hERG current change (%, negative = inhibition) at 1uM” value turned out to be 12.5%. Take `CCCn1cc(S(=O)(=O)c2ccc(C)cc2)c(=O)c2cc(OC)c(OC)cc21`: the “hERG current change (%, negative = inhibition) at 1uM” value is reported as 7.98%.

As for `O=C(COc1ccc(Cl)cc1)Nc1ccc2c(c1)C(=O)NC2=O`, the “hERG current change (%, negative = inhibition) at 1uM” value is listed as 14.5%. The result for `CCCc1c(C)c2cc(C)ccc2[nH]c1=O` reads -3.14%; that for `COC(=O)c1cc(C)nc(Sc2ccccc2NC(C)=O)n1`, 12%. Next, `CCOC(=O)C1(C)NC(c2ccc(OC)c(OC)c2)C2C(=O)N(CC)C(=O)C21` (stereo not drawn): 4.83%; `O=C1NN=C(c2ccc(Cl)cc2)CC1c1cccc(Cl)c1` (stereo not drawn): -2.01%; `COC(=O)c1sccc1NC(=S)N1CCN(C)CC1`: 12.2%. The result for `O=C(O)C(=O)O.c1ccc(CN2CCN(C(c3ccccc3)c3ccccc3)CC2)cc1` reads 10.4%; that for `CC(=O)Nc1nnc(SCc2cccc(F)c2)s1`, 5.89%. Consider `CC1CCC2(CC1)Nc1ccccc1C(=O)N2c1ccccc1` (stereo not drawn), for which the “hERG current change (%, negative = inhibition) at 1uM” value was determined as 9.74%.

As for `CCOc1nc2ccccc2nc1C`, the “hERG current change (%, negative = inhibition) at 1uM” value stood at 7.52%. Next, `COc1ccccc1C(=O)NCCC(=O)NCc1ccncc1`: 9.55%. The result for `O=S(=O)(c1ccc(NC(=S)Nc2ccc3c(c2)OCO3)cc1)N1CCOCC1` reads 15.7%. Next, `Cc1c(NC(=O)Nc2c(Cl)cccc2Cl)c(=O)n(-c2ccccc2)n1C`: 6.17%. `NS(=O)(=O)c1ccc(NS(=O)(=O)/C=C/c2ccccc2)cc1`: the “hERG current change (%, negative = inhibition) at 1uM” value is listed as 13%.

Turning to `COc1ccc(-n2c(CN3CCC(C(N)=O)CC3)nc3ccc([N+](=O)[O-])cc3c2=O)c(OC)c1`, the “hERG current change (%, negative = inhibition) at 1uM” value was 3.9%. `O=C1CCC(C(=O)NCc2ccccc2)N1` (stereo not drawn): the “hERG current change (%, negative = inhibition) at 1uM” value came out at 11.9%. Next, `CCOC(=O)c1ccc(NS(=O)(=O)c2c(C)nc3sccn3c2=O)cc1`: 6.59%.

Take `CCCNC(=O)c1cc2nc(-c3ccccc3)cc(C(F)(F)F)n2n1`: the “hERG current change (%, negative = inhibition) at 1uM” value is 8.49%.

Turning to `CCOc1ccc(OCCC(=O)OCC(=O)Nc2cc(S(=O)(=O)N3CCOCC3)ccc2C)cc1`, the “hERG current change (%, negative = inhibition) at 1uM” value was 11.7%.

Consider `Cc1ccc(C(=O)Nc2ccc3nccnc3c2)cc1`, for which the “hERG current change (%, negative = inhibition) at 1uM” value came to 13.2%. For the molecule `O=C(CN1C(=O)NC2(CCCCC2)C1=O)N1CCN(S(=O)(=O)c2cccc([N+](=O)[O-])c2)CC1`, the “hERG current change (%, negative = inhibition) at 1uM” value worked out at 9.25%. The result for `N#Cc1ccccc1NC(=O)Nc1cccs1` reads 18%.

Consider `Cn1c(Cn2cnc([N+](=O)[O-])n2)nnc1SCC(=O)Nc1ccc(Br)cc1`, for which the “hERG current change (%, negative = inhibition) at 1uM” value turned out to be 10.6%. On to `O=C(Nc1ccc(Cl)cc1)C1CCCN1C(=O)NCc1ccccc1` (stereo not drawn), for which the “hERG current change (%, negative = inhibition) at 1uM” value is 8.51%. For the molecule `CC1(c2nnc(Cc3ccccc3)o2)CC(c2ccc(F)cc2)=NO1` (stereo not drawn), the “hERG current change (%, negative = inhibition) at 1uM” value was found to be 6.99%. The result for `CCCc1c(C(=O)N/N=C/c2ccccc2OCc2ccc(F)cc2)nnn1-c1nonc1N` reads 12.4%; that for `O=C(NCC(c1cccs1)N1CCOCC1)c1ccc(Cl)c(S(=O)(=O)N2CCOCC2)c1` (stereo not drawn), -1.11%. Take `Cc1ccc(S(=O)(=O)NCc2nc3ccccc3[nH]2)cc1`: the “hERG current change (%, negative = inhibition) at 1uM” value came out at 9.38%. As for `COc1ccc2cc(C(N)=O)c(=Nc3ccc(C)cc3)oc2c1`, the “hERG current change (%, negative = inhibition) at 1uM” value amounted to 8.43%.

With `CCCn1c(SCC(=O)N2CCc3ccccc3C2)nc2c1c(=O)n(C)c(=O)n2C`, the “hERG current change (%, negative = inhibition) at 1uM” value is listed as -11.4%. Next, `COc1cccc(S(=O)(=O)NCc2ccc(C(=O)Nc3ccc(Cl)c(Cl)c3)cc2)c1`: -4.02%; `COC(=O)[C@H](C)NC(=O)NC1CCCc2ccccc21` (stereo partly drawn): -1.13%.

For the molecule `O=C(Cc1ccccc1)N/N=C/c1cccc([N+](=O)[O-])c1`, the “hERG current change (%, negative = inhibition) at 1uM” value amounted to 7.67%. Next, `Cc1oc(C(C)(C)C)cc1C(=O)N1CCN(c2ncccc2C(F)(F)F)CC1`: 8.29%; `CCOC(=O)c1c(C)nc(C)c(C(=O)OCC)c1-c1ccc(Br)cc1`: -7.77%; `CC(CCN1C(N(C)C)=NC[C@@H]1C)c1ccccc1` (stereo partly drawn): 8.4%. Next, `CC(C)n1c(SCC(=O)Nc2ccccc2N2CCCCC2)nc2c1c(=O)n(C)c(=O)n2C`: -0.548%. The result for `COC(=O)c1cc(C(=O)Nc2cc(C)ccn2)cc([N+](=O)[O-])c1` reads 9.81%; that for `C#Cc1cccc(-n2nnc(C(C)=O)c2C)c1`, 13.1%; that for `C=CCn1c(SCC(=O)N(CC)C2CCS(=O)(=O)C2)nc2sc3c(c2c1=O)CCC3` (stereo not drawn), -37.5%.

As for `CC(=O)O[C@H]1C[C@@H]2CC[C@@H]3[C@H](CC[C@@]4(C)[C@H]3C[C@H]([N+]3(C)CCCCC3)[C@@H]4OC(C)=O)[C@@]2(C)C[C@@H]1[N+]1(C)CCCCC1.[Br-]`, the “hERG current change (%, negative = inhibition) at 1uM” value is listed as 10.6%. The result for `CCC(CO)NC(=O)c1ccccc1C(F)(F)F` (stereo not drawn) reads 7.18%; that for `CN(C(=O)Cn1nnc(-c2cccnc2)n1)C1CCCCC1`, 4.03%. The result for `O=C(CSc1oc(-c2cccs2)nc1S(=O)(=O)c1ccc(F)cc1)NCC1CCCO1` (stereo not drawn) reads -9.44%; that for `O=[N+]([O-])c1cc(/C=N/N2CCOCC2)cs1`, 12.7%. Next, `COc1ccc(-c2noc(CN3CCN(C(=O)c4cccs4)CC3)n2)c(OC)c1OC`: 14.2%; `Cc1cccc(NC(=O)c2nc[nH]c2C(=O)N[C@@H](CC(C)C)C(=O)OCc2ccccc2)c1`: 13.6%.

With `CC(C)CC(C(=O)Nc1ccc2c(c1)OCCO2)N1C(=O)c2ccccc2C1=O` (stereo not drawn), the “hERG current change (%, negative = inhibition) at 1uM” value is listed as -0.948%. The result for `Cc1ccc2c(c1)N(CC(=O)NCCCN1CCN(C)CC1)C(=O)CO2` reads 6.68%; that for `C=CCNC(=O)/C(=C\c1ccc(Br)cc1)NC(=O)c1ccccc1OC`, -3.85%. Next, `CC(=O)OCCCN(C)CC/C=C1/c2ccccc2CSc2ccccc21.Cl`: 5.71%. For `CCOc1ccc(C(NC(=O)CC)c2c(O)ccc3ccccc23)cc1` (stereo not drawn), the “hERG current change (%, negative = inhibition) at 1uM” value was 12.5%. Take `CSc1cc(-c2ccc(Cl)cc2)c(C(=O)N2CCCC2)s1`: the “hERG current change (%, negative = inhibition) at 1uM” value is -4.99%. As to `O=C(Nc1ccccc1)OCC1CCCN2CCCCC12` (stereo not drawn), the “hERG current change (%, negative = inhibition) at 1uM” value is -10.9%.

As for `O=C(COC(=O)c1cncc(Br)c1)NCC1CCCO1` (stereo not drawn), the “hERG current change (%, negative = inhibition) at 1uM” value is 9.97%. The result for `CCOC(=O)N1CCC(NS(=O)(=O)c2ccc3c(c2)OCC(=O)N3)CC1` reads 13%.

With `CCN(CC)CCCNC(=O)c1ccc(Cl)c(S(=O)(=O)Nc2ccccc2OC)c1.Cl`, the “hERG current change (%, negative = inhibition) at 1uM” value is recorded as -6.4%.

For `Cc1ccc(N2C(=O)C3C=NNC3C2=O)cc1` (stereo not drawn), the “hERG current change (%, negative = inhibition) at 1uM” value is 11.4%.

Consider `C/C(N)=C(/C#N)C(=O)COC(=O)CNS(=O)(=O)c1c(F)cccc1F`, for which the “hERG current change (%, negative = inhibition) at 1uM” value was 0.981%.

In the case of `Cc1c([N+](=O)[O-])ccc(S(=O)(=O)N2CCC(C(N)=O)CC2)c1C`, the “hERG current change (%, negative = inhibition) at 1uM” value is given as 2.95%. Next, `Fc1ccc2c(Cl)c(-c3nnc(-c4cccs4)o3)sc2c1`: 18.4%.

The values are drawn from publication PMC4336329 (PLoS ONE, 2015).
